B1: chr2:232320318:232320319:-_ENSG00000115053_ENST00000322723|hu_hu|hu_hu_hu_mus_True|38_38 (ssRNA)
RNA: GGGAGUUCUACAGUCCGACGAUCACUAUUAAAGUCUACAAAACCAAACCCUUUGGAAGAACCAGUUUCCCGAUCAGUGACUAUUCUUGCACGAACAGAGCCGUCAAAUGAUUCUUUUAAGGUCUCUUCAGUGGUAUCCUCAGACAACAGAGGAUUGAGCAUCA
B2: chr5:133537698:133537699:-_ENSG00000113575_ENST00000481195|hu_hu|motif|central (ssRNA)
RNA: GGGAGUUCUACAGUCCGACGAUCGCUCUCAUGAUUCCCUCGAAGAAUGGUGAUGCGUUCACGGUAACGAACCUUAAGAGCGGCAAGCAGUGUAACUGUUUCAACUGAAUAAUAUCCUCUGUCAACAUAAUCUCCCAUAAACAACAACAGAGGAUUGAGCAUCA
B3: 31314769_31314965_1062_CDS_ENSMUSG00000036882_ENSMUST00000044338|mouse|control|control (ssRNA)
RNA: GGGAGUUCUACAGUCCGACGAUCCCUGUAGAUUCCAUCCACCACACCAUGGGCCUCAAUAAACUCAGAGCAGCAGCGCAGCACUUGGGGCACGUCUUGGCCUGAGUUGCUGAGGUGCUCUCCAAGAUCACAACCAAACACCCUCAACAGAGGAUUGAGCAUCA
B4: chr13:21488354:21488355:-_ENSMUSG00000021327_ENSMUST00000070785|mus_hu|FALSE|FALSE (ssRNA)
RNA: GGGAGUUCUACAGUCCGACGAUCUUCCUCCACCUUUAUGACCAGAAGCUCCAUCUGGUCUUCUGUAGACUGGGCAUCCAGGGCUGUGCUUUCACUUAAUUCUCUAGCCAUCCUAGGCCAAGGCAGUACUCAGGCCUCACUCUACAACAGAGGAUUGAGCAUCA
B5: chr2:66073698:66073699:-_ENSMUSG00000034848_ENSMUST00000102718|mus_mus|motif|central (ssRNA)
RNA: GGGAGUUCUACAGUCCGACGAUCCUGCUGGAAUUCACUGAAGAACUCCAACUGCUGGUCUGCAUCUUGCAACUGCCCCUCGGUUAACUGACAUCGGAUAAGUCCGGUGACAGCAGAGAUGUUGCUCUCAUUCAGCGUCAUGGCCAACAGAGGAUUGAGCAUCA
B6: chr13:100204638:100204639:-_ENSMUSG00000052727_ENSMUST00000064762|mus_hu|FALSE|FALSE (ssRNA)
RNA: GGGAGUUCUACAGUCCGACGAUCAGGAGUGGGCACCUGGCCAGUGAGAUCCUUUUGGGUGGCCAGUGGCUGCUUCAGAAAGUCUAGAUGUUUGAGCUUUUCCAACCCUUCCAGGAUGUUGUACUGGGUGCUGUUCCCAGGAAACAACAGAGGAUUGAGCAUCA
B7: chr5:146798188:146798189:-_ENSG00000113657_ENST00000343218|hu_hu|FALSE|FALSE (ssRNA)
RNA: GGGAGUUCUACAGUCCGACGAUCCUUCCCAUUGGCUUCAAUGGUCUUCACUCCUCCAGGAACAAUCAGAUUGUCUCCAAUUUGUUUUAUUAAGCCAUCUUCCAUGUAAAUAUCAGCAUAAAAGGACUGAUCAUCAUUGACGAUCAACAGAGGAUUGAGCAUCA
B8: chr1:247070963:247070964:-_ENSG00000153207_ENST00000391829|hu_hu|motif|central (ssRNA)
RNA: GGGAGUUCUACAGUCCGACGAUCCUGAUUUGUCCUGCUUAUGUAACUAAGAGUUGAAACAGCUGUUCCUGUUGGACUUACGGACUGGAAACACAGAUGGCGCCCUUGUCUCAUUACACUUUCUCUAAUGUGUGGUACUUCAGCCAACAGAGGAUUGAGCAUCA
B9: chr19:2271408:2271409:+_ENSG00000104904_ENST00000602676|hu_hu|FALSE|FALSE (ssRNA)
RNA: GGGAGUUCUACAGUCCGACGAUCGAUCUUCAGGGGUGGGUGAGGGGCAUCGGAGCACCACCGAGGCCCCGGACCCGGGUUACUACAGCAGUGGAGGGAGACCCUGGAACUCUCACUGCUGCUGCCGCCGCGGCUGUGCAGGCUCAACAGAGGAUUGAGCAUCA
B10: chr8:23117756:23117757:+_ENSG00000147457_ENST00000313219|hu_hu|motif|central (ssRNA)
RNA: GGGAGUUCUACAGUCCGACGAUCAGCUUCAAGUUCAGCAUCUGAGAUCCUAGGGUUAGGCACGCUGUUGGUAAAAUGCCGGUUGCGGGGGUUGUCAGGCAGAUCCAAAGGUUCUUUGGUGGUAUCCUGAAGGAGGAUGUCCAACAACAGAGGAUUGAGCAUCA
B11: chr1:36758251:36758252:+_ENSG00000054118_ENST00000354618|hu_mus|FALSE|FALSE (ssRNA)
RNA: GGGAGUUCUACAGUCCGACGAUCGUGUAUCUCUGGGCUUUUCUUAUUUUUAGCUGCUUCUUGUUCAUUUCCUCUCUUUAGGUAUUUAGUAAAGCGUUCAUGCAAUGUCAUUCCAGAGGAUCCAAAGUGAUGCUCUUUAACAUGCAACAGAGGAUUGAGCAUCA
B12: chr1:158563958:158563959:+_ENSMUSG00000026596_ENSMUST00000166172|mus_mus|motif|central (ssRNA)
RNA: GGGAGUUCUACAGUCCGACGAUCUGUCCAUUUAAUAGGAAAUUUGGCUCCAGCAUGAGCAGUGUAGGUAUCUCCAGUCAUCAGUCGGCUUAAACCAAAGUCGGCCACUUUCACCACAUGGUUCUCGCCCACUAGGCAGUUCCGCAACAGAGGAUUGAGCAUCA
B13: 24909548_24909668_1702_CDS_ENSG00000107863_ENST00000396432|human|control|control (ssRNA)
RNA: GGGAGUUCUACAGUCCGACGAUCAUAAUCUGUCGUGCUUUGAGAUGCUGCUCUUAAACUAUCUAAUCUUUCUUGUAUUGUCCGACAACCUAUGUGCAAUCGUCUGUUAUCAAUAUACUCUUUGUAAGUUUUAUAGUUUUUCCACAACAGAGGAUUGAGCAUCA
B14: chr10:92717539:92717540:-_ENSMUSG00000008398_ENSMUST00000008542|mus_hu|FALSE|FALSE (ssRNA)
RNA: GGGAGUUCUACAGUCCGACGAUCCUGGAACAGCGUGCUUGGCCCUUGCAGCCUGGCAGGACUCAGCGGAGCAACUGGACUAAGGCUGCUCCAGAAAUGUAUGCUGGAGAGCAGUGGACUCGGAGUCAGAAGCAAUCCAUUUGGCAACAGAGGAUUGAGCAUCA
B15: chr4:83276511:83276512:-_ENSG00000138668_ENST00000353341|hu_hu|FALSE|FALSE (ssRNA)
RNA: GGGAGUUCUACAGUCCGACGAUCCUUCACCACCUGUUGGGGAUAAGUUGCAAAUGGAAUAAUUUAGUAUGGUUUGUAGCUAUUUUGAUGACCACCUCGCCUGGAUACCUUCCCAUAACCACUCUGCUGGUCACCACCUCUUCCCAACAGAGGAUUGAGCAUCA
B16: 76045722_76045842_1366_CDS_ENSG00000078687_ENST00000588847|human|control|control (ssRNA)
RNA: GGGAGUUCUACAGUCCGACGAUCAACUGAUGAUCCAUUAGCACCAGGAAGGCCUUGCAGGUGGGGCGGGAUGAUGGCCCCCAUACCAACAGCCAUGCCCCAGUUUGGCAGUCCAUUUGUCUGCAUUGCAUUGAUAGGGUUGGGCAACAGAGGAUUGAGCAUCA
B17: chr1:25687284:25687285:+_ENSG00000183726_ENST00000374358|hu_hu|FALSE|FALSE (ssRNA)
RNA: GGGAGUUCUACAGUCCGACGAUCUCGUGAUUUUAGUAUUACACAACUUUAAGCUGAGACUACACUCAGAAAUAAGUUUAGAAAAUGGCAUUACAAAAGGUUGGGAGUGAGCAGUAAAAAAACAAACAAACCCAUGCAGGGCUGCAACAGAGGAUUGAGCAUCA
B18: chr12:86369911:86369912:+_ENSMUSG00000021244_ENSMUST00000021670|mus_hu|FALSE|FALSE (ssRNA)
RNA: GGGAGUUCUACAGUCCGACGAUCAAAAGCUGGUUUGGGGCCUUUCCACUGUGGUCCACUCUGUCGAGGACUUAGGGAUGUACUGGGGGUAAUAUAAAAUUGAGAUGCUGGCCCCCGGGGAAUCAUUCCCCACUUGCUUUUAGUCAACAGAGGAUUGAGCAUCA
B19: 161332164_161332284_660_3pUTR_ENSG00000143252_ENST00000367975|human|control|control (ssRNA)
RNA: GGGAGUUCUACAGUCCGACGAUCAAACAGAAAGAUGGGUGAAUGUAAUAAUGUGUAGGAAGAUGAUGCUGGGAGCCUCCUUUCUUCACAUGGCUGCCAGCCCCAUAGAGGACAACACAGUAAGAACCAGGACAACCACUCCAGCAACAGAGGAUUGAGCAUCA
B20: chr18:35731649:35731650:+_ENSMUSG00000037236_ENSMUST00000166793|perfect_dup|FALSE|FALSE (ssRNA)
RNA: GGGAGUUCUACAGUCCGACGAUCCCCUACUGAGAGAUGACUGCUGGAAUGACUUGGACAUUGUAGAACUAGCUCUUGUCUAUUUUAUAGAUUAAAAAAAAAAAUUUUUUUAAAGACGGCCAAAAAGAAAGCUCAAACUAGAAACAACAGAGGAUUGAGCAUCA
B21: chr12:80258887:80258888:-_ENSMUSG00000021124_ENSMUST00000055262|mus_hu|FALSE|FALSE (ssRNA)
RNA: GGGAGUUCUACAGUCCGACGAUCGUUUACCAGUCUACUCUUGGUACGUUCUAACUGGUCUCGUUGUUCCCCCAGCUCUUCUAUGAUUUCUGAGCCAAUCUGGUCAGUCUCUGUGGCAAUCCGAUGAGAACGUUCAAUACUUUGCAACAGAGGAUUGAGCAUCA
B22: chr17:57760048:57760049:+_ENSG00000141367_ENST00000269122|hu_hu|FALSE|FALSE (ssRNA)
RNA: GGGAGUUCUACAGUCCGACGAUCUGCCUGAUAUUCACCCAGGUGAACCAGGGUAGAUGCCAAACGUCCAAAAUUGGAAACAUUAUUGUACAACAACUUAGCAGCAUCAUACAUUUUUUCAUCAUAACAACGGUCACCAACUUGCAACAGAGGAUUGAGCAUCA

The values that follow come from PMC12136788.

The list shows a part of the results.

This assay concerns the target T1, UNK ZnF1-3 (human, UniProt Q9C0B0 31-174).
T1 sequence: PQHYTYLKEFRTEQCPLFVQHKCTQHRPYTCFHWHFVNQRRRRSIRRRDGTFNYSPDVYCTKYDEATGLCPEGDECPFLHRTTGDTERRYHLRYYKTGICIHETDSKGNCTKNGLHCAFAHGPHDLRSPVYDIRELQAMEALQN
In words: nsRBNS (natural sequence RNA bind-n-seq); RBNS binding buffer (assumed for nsRBNS): 25 mM Tris pH 7.5, 150 mM KCl, 3 mM MgCl2, 0.01% Triton X-100, 500 ug/ml BSA, 20 U/ml SUPERase-In, 4 C; UNK is unkempt and MSI1 is Musashi-1; names of the RNAs are library labels; protein concentration not given here; high values mean tight binding.
B1 had a binding signal of 0.664 enrichment R.

With B2, the binding signal is 1.28 enrichment R.

B3 yielded a binding signal of 0.879 enrichment R.

With B4, the binding signal is 1.13 enrichment R.

For B5, the binding signal came to 0.892 enrichment R.

With B6, the binding signal was 1.16 enrichment R.

For the molecule B7, the binding signal turned out to be 1.23 enrichment R.

Molecule B8 showed a binding signal of 0.811 enrichment R.

In turn, B9 displayed a binding signal of 0.893 enrichment R.

Take B10: the binding signal was 1.12 enrichment R.

Molecule B11 displayed a binding signal of 0.539 enrichment R.

Regarding B12, the binding signal came out at 0.889 enrichment R.

B13: the binding signal amounted to 0.638 enrichment R.

Molecule B14 registered a binding signal of 0.773 enrichment R.

As to B15, the binding signal amounted to 0.992 enrichment R.

In turn, B16 returned a binding signal of 1.16 enrichment R.

B17 displayed a binding signal of 0.704 enrichment R.

Molecule B18 yielded a binding signal of 1.05 enrichment R.

Take B19: the binding signal was found to be 1.59 enrichment R.

B20 returned a binding signal of 3.14 enrichment R.

For the molecule B21, the binding signal was 0.504 enrichment R.

Molecule B22 showed a binding signal of 0.876 enrichment R.
